Assay results taken from PubChem BioAssay (NCATS).
Where “and” joins values, the source holds several entries; their conditions need not be identical. Identical values can stand only once. The inconclusive results got no clear call from the source; some entries with a clear call stand among them for comparison. Potencies beside an inconclusive call are fits to weak or partial responses and may not hold up. Calls of active or inactive are those of the source. Unless noted, calls come from the whole dose curve; as a rule, active = well fitted inhibition curve with a large enough effect; inconclusive = small, poorly fitted or top-dose-only effect; inactive = flat fitted curve, though single readings scatter.

The compounds below were run against 3',5'-cyclic-AMP phosphodiesterase 4B (Homo sapiens) (UniProt Q07343) (assay: qHTS Assay for Inhibitors of PDE-IV (AID 607; active = well fitted activation curve with a large enough effect in the main read-out, with a control signal flat, not every such curve was filed as active; inconclusive = small, poorly fitted or top-dose-only effect, or effect the other way, or a change in a side signal)). Conditions: HEK293 ACTOne CNG channel cells, membrane potential fluorescence.
Chain of UniProt Q07343 (Q07343 whole entry, looked up): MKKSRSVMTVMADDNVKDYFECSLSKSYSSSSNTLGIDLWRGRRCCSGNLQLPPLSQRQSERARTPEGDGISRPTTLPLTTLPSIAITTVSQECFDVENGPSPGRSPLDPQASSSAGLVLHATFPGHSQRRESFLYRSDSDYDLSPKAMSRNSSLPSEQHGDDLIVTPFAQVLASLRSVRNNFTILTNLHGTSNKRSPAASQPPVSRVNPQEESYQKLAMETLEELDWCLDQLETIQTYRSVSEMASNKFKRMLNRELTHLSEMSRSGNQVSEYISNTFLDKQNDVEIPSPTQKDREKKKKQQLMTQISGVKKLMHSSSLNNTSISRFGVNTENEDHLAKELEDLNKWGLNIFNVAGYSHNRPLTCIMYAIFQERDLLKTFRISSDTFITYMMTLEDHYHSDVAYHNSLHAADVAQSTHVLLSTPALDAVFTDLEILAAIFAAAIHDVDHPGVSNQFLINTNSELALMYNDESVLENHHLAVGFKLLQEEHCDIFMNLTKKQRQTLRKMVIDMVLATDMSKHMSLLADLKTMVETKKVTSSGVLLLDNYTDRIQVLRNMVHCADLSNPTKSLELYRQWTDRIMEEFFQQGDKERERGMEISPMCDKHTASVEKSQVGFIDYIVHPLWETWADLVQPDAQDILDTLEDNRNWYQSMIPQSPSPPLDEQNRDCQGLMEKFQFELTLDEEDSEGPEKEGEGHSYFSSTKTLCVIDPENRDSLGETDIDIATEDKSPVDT
How it was run: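 ACTOne HEK293 cells carry a modified cAMP-gated CNG channel and express endogenous PDE4; plated 1000 cells/well, compounds up to 22.9 uM final. Membrane-potential dye fluorescence (ex 535/em 590) was read; parental cells received 10 uM forskolin + 100 uM RO 20-1724.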
Potency is the fitted concentration of half-maximal effect; tags give direction and shape of the fitted curve.

| Structure (SMILES) | Potency |
| --- | --- |
| O=C1CC[C@@]2(O)[C@H]3Cc4ccc(O)c5c4[C@@]2(CCN3CC2CC2)[C@@H]1O5 | inactive and inconclusive: 19 µM [inhibitor, single point] |
| CNCCc1cnc[nH]1 | inconclusive: 15.1 µM [inhibitor, single point] |
| C/C(O)=C(/C#N)C(=O)Nc1cc(Br)ccc1Br | inconclusive: 19 µM [rising, single point] |
| NC[C@H](CS(=O)(=O)O)c1ccc(Cl)cc1 | inconclusive: 19 µM [inhibitor, single point] |

These compounds were tested against Ubiquitin carboxyl-terminal hydrolase 1 (Homo sapiens) (UniProt O94782) (assay: Inhibitors of USP1/UAF1: Pilot qHTS (AID 504865;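 note: rhodamine fluorescence freed from ubiquitin-rhodamine substrate followed over time; nearly all actives have a fitted effect of over 35% in size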)). Conditions: purified USP1/UAF1, Ub-rhodamine cleavage fluorescence; series mostly up to 114 µM.
Chain of UniProt O94782 (O94782 whole entry, looked up): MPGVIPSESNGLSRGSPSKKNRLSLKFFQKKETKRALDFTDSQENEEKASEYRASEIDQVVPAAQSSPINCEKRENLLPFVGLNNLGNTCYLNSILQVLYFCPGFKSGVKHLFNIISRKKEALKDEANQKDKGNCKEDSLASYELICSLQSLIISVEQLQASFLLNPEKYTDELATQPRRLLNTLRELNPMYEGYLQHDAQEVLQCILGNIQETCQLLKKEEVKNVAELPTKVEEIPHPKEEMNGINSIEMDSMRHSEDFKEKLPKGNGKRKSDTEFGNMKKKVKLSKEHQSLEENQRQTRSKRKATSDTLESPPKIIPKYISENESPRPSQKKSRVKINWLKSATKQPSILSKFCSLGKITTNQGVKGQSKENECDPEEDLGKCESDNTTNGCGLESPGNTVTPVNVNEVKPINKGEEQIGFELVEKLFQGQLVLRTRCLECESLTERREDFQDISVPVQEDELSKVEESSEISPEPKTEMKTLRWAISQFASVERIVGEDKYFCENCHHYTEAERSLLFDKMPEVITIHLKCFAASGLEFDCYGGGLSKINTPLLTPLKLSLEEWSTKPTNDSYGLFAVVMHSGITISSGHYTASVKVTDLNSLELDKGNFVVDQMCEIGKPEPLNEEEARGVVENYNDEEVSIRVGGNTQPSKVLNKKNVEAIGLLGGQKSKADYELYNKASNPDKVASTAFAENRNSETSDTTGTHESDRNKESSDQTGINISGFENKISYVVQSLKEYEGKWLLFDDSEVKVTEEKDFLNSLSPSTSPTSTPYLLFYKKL
How it was run: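 1nM USP1/UAF1 + cpd, 15 min RT; start w/ Ub-Rho 150nM final; kinetic FL 480/540 nm, 6 reads q60 s. Buffer 50mM HEPES pH 7.8, 0.5mM EDTA, 1mM TCEP, 0.01% Tween-20, 0.1 mg/ml BSA.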

| Structure (SMILES) | Potency |
| --- | --- |
| COc1cc2ccc(=O)oc2c2ccoc12 | inconclusive: 79.4 µM [inhibitor, partial curve] |
| CC1=CC(=O)c2c(O)cccc2C1=O | active: 17.8 µM |
| C=CCc1cc(OC)c2c(c1OC)OCO2 | inconclusive: 100 µM [inhibitor, partial curve, poor fit] |
| N#Cc1c(Cl)c(Cl)c(Cl)c(C#N)c1Cl | active: 10 µM |
| CC(C)c1ccc2c(c1O)CCC1C3=C(CC[C@]21C)C(=O)OC3 (stereo partly drawn) | inconclusive: 44.7 µM [inhibitor, partial curve] |
| CC(C)CCCC(C)C1CCC2C3CC(O)[C@@]4(O)CC(O)CC[C@@]4(C)C3CC[C@@]12C (stereo partly drawn) | inconclusive: 89.1 µM [inhibitor, partial curve] |
| Oc1cc(O)c2c(c1)OC(c1cc(O)c(O)c(O)c1)C(O)C2 (stereo not drawn) | inconclusive: 50.1 µM [inhibitor, partial curve, poor fit] |
| CCOP(=S)(OCC)Oc1nc(Cl)c(Cl)cc1Cl | inconclusive: 39.8 µM [inhibitor, partial curve, poor fit] |
| CC1CC2CC(=O)C3CCCN4CCCC2[C@]34C1 (stereo partly drawn) | inactive |
| CC(=O)OC1CC(OC(C)=O)[C@]2(C)C(CC(OC(C)=O)[C@]3(C)C2CC[C@@]2(C)C(c4ccoc4)C(=O)C4O[C@]432)C1(C)C (stereo partly drawn) | inconclusive: 12.6 µM [inhibitor, full curve, poor fit] |
| C=C1[C@@H]2C[C@@]3([C@H]1O)[C@H]1C[C@@H]4[C@@]5(C)CC[C@H](O)[C@]4([C@H]1N(CC)C5)[C@H]3C[C@H]2O | inactive |
| CC(=O)C1CCC2C3CCC4CC(O)CCC4(C)C3CC(O)C12C (stereo not drawn) | inactive |
| CC(=O)OC1CC2C(C)(C)C(O)C=C[C@@]2(C)C2CC[C@]3(C)C(=CC(=O)OC3c3ccoc3)[C@]12C (stereo partly drawn) | inconclusive: 35.5 µM [inhibitor, full curve, poor fit] |
| O=C1CC[C@@]2(O)[C@H]3Cc4ccc(O)c5c4[C@@]2(CCN3CC2CC2)[C@@H]1O5 | inactive |
| CC(=O)N1CCN(c2ccc(OCC3CO[C@@](Cn4ccnc4)(c4ccc(Cl)cc4Cl)O3)cc2)CC1 (stereo partly drawn) | inconclusive: 89.1 µM [inhibitor, partial curve, poor fit] |
| COC(=O)CN1CN(c2ccccc2)C2(CCN(Cc3ccc4ccccc4c3)CC2)C1=O | inconclusive: 39.8 µM [inhibitor, partial curve] |
| CC(=O)N1CC[N+](C)(C)CC1 | inconclusive: 79.4 µM [inhibitor, partial curve, poor fit] |
| CCCCCCCCCCCCCC(=O)OC1C(C)[C@@]2(O)C(C=C(CO)C[C@]3(O)C(=O)C(C)=C[C@H]23)[C@@H]2C(C)(C)[C@]12OC(C)=O (stereo partly drawn) | inconclusive: 50.1 µM [inhibitor, partial curve, poor fit] |
| CN(C(=O)Cc1ccc(Cl)c(Cl)c1)[C@H](CN1CCCC1)c1cccc(N=C=S)c1 | inconclusive: 31.6 µM [inhibitor, partial curve] |
| CNCCc1cnc[nH]1 | inactive |
| COC(=O)[C@]1(C)CC[C@@]2(C)CC[C@@]3(C)C4=CC=C5C(=CC(=O)C(O)=C5C)[C@@]4(C)CC[C@@]3(C)C2C1 (stereo partly drawn) | active: 44.7 µM |
| CN1C[C@@H](C(=O)N[C@@]2(C)O[C@]3(O)C4CCCN4C(=O)[C@@H](Cc4ccccc4)N3C2=O)C=C2c3cccc4[nH]cc(c34)C[C@@H]21 (stereo partly drawn) | active: 50.1 µM |
| CC(C)C(C)/C=C/C(C)C1CCC2C3=CC=C4CC(O)CCC4(C)C3CCC21C (stereo not drawn) | inconclusive: 79.4 µM [inhibitor, partial curve, poor fit] |
| COc1cc2c(cc1OC)[C@@H]1C(=O)c3ccc(OC)c(CC=C(C)C)c3OC1CO2 (stereo partly drawn) | inconclusive: 50.1 µM [inhibitor, partial curve, poor fit] |
